Data on twelve sequences can be found in article PMC4081100.

The list shows a part of the results, in another mix than the full data. For some assays here: At the low end of the ranking the order means little. This is one part of the list. For some assays here: The source does not settle which construct or isoform was used.

Holding throughout (test): universal protein binding microarray (PBM)
Holding throughout (conditions): transcription factors of Arabidopsis thaliana; high values mean tight binding; most listed sequences are background and not binding sites; double strand, one strand shown

Test [1] deals with T1, GST-ANAC092(1-176) (UniProt Q9FKA0).
T1 sequence: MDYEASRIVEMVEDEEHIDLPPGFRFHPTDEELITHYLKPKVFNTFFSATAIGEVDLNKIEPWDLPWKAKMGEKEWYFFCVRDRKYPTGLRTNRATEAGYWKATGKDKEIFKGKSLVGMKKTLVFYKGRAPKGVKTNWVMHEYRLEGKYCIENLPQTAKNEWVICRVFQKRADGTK

Test [2] deals with GST-NTL6(1-168) (UniProt Q9SCK6).
Test [3] has as its target T2, GST-ANAC019 NAC domain (UniProt Q9C932).
T2 sequence: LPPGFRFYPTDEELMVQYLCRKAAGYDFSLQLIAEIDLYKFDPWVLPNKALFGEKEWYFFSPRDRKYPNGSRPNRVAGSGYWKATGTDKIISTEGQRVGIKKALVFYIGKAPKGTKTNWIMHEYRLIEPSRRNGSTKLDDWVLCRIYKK

For test [4], the target named is T3, GST-ANAC055(1-171) (UniProt Q9LDY8).
T3 sequence: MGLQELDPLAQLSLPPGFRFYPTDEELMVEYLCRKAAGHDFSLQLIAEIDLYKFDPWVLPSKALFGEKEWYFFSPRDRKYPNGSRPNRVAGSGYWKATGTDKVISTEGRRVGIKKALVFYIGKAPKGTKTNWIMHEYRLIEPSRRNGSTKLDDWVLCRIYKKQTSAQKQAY

Test [5] addresses T4, GST-ATAF1 NAC domain (UniProt Q39013).
T4 sequence: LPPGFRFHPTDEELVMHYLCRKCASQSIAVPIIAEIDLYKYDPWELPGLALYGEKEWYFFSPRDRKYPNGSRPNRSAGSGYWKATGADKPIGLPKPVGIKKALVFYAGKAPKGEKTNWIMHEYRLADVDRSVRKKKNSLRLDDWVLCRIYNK

Test [6] addresses T5, GST-ANAC092(1-285) full length (UniProt Q9FKA0).
T5 sequence: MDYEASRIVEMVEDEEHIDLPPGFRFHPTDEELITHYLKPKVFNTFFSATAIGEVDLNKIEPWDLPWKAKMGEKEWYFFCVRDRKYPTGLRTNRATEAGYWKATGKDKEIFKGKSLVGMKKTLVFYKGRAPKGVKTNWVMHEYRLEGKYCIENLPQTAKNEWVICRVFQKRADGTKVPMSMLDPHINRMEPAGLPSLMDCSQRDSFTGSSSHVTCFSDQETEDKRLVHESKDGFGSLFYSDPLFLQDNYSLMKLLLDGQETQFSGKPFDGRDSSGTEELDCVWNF

The target in test [7] is T6, GST-NAP(1-166) (UniProt O49255).
T6 sequence: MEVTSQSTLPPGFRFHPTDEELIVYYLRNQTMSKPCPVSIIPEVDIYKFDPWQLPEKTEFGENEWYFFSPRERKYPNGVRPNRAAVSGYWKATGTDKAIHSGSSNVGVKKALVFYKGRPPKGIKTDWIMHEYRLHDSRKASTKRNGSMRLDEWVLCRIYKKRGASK

Test [8] has as its target T7, GST-NST2(1-184) (UniProt Q9M274).
T7 sequence: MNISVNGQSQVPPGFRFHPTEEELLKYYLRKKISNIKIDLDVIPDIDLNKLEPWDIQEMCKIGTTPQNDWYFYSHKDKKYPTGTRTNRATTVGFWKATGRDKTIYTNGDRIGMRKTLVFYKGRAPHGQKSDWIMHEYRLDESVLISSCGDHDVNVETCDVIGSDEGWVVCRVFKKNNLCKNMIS

Test [9] concerns the target T8, GST-NTL8 NAC domain (UniProt Q9XIN7).
T8 sequence: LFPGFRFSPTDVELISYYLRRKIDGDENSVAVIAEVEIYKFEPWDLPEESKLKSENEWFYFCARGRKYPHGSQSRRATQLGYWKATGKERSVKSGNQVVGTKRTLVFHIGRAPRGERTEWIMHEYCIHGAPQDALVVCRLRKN

For test [10], the target named is T9, GST-SND1(1-203) (UniProt Q9LPI7).
T9 sequence: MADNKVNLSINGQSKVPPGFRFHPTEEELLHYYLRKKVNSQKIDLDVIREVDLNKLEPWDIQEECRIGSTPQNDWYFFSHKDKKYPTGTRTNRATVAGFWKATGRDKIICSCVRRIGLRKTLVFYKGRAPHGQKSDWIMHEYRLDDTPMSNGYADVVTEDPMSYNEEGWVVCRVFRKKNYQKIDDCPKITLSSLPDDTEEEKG

The target of test [11] is T10, GST-VND3 NAC domain (UniProt Q9FH59).
T10 sequence: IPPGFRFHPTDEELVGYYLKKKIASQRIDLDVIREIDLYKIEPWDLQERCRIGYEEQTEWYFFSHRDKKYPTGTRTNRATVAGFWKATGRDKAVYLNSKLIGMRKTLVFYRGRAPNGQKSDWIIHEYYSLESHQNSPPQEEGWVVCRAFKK

Test [12] deals with T11, GST-VND7 NAC domain (UniProt Q9C8W9).
T11 sequence: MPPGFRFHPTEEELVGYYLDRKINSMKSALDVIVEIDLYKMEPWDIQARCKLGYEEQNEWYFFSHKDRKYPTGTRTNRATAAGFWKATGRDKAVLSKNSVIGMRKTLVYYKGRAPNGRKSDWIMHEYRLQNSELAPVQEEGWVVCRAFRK

The target in test [13] is T12, GST-VOZ2 (Arabidopsis thaliana) (UniProt Q9SLB9).
T12 sequence: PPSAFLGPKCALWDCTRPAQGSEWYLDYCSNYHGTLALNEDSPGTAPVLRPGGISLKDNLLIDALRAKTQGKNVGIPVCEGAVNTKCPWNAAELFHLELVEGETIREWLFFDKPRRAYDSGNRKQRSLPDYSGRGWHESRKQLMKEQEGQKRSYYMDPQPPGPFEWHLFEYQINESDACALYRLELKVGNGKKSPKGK

The target of test [14] is GST-WRKY1(266-371) (UniProt Q9SI37).
UniProt Q9SI37, sequence (Q9SI37 266-371, chain 1 of 2): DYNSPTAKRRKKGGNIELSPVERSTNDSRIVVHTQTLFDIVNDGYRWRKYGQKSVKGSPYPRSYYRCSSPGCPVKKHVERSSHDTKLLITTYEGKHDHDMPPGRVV

With CTGACCAG, the binding signal was -0.0775 E-score in [1]; -0.132 E-score in test [2]; -0.00213 E-score in [3]; -0.197 E-score in test [4]; -0.138 E-score in test [5]; -0.092 E-score in [6]. In addition, the binding signal in test [7] is -0.0821 E-score; in [8], -0.176 E-score; in test [9], -0.0247 E-score; in test [10], -0.0417 E-score; in test [11], -0.13 E-score; in test [12], -0.065 E-score. In addition, the results for the binding signal in test [13] and in test [14] were -0.0939 E-score and 0.444 E-score, respectively.

With AAAGTCTT, the binding signal in test [1] is -0.0801 E-score; in test [2], 0.0508 E-score; in test [3], 0.0181 E-score; in test [5], 0.0148 E-score; in test [6], -0.0725 E-score; in test [7], -0.138 E-score. In addition, the binding signal in test [8] is -0.00475 E-score; in test [9], 0.00468 E-score; in test [10] it was -0.0823 E-score; in test [11], 0.0477 E-score; in [12], -0.00431 E-score; in test [13], -0.217 E-score. Besides, the binding signal in test [14] turned out to be 0.429 E-score.

As for AGGTCAAC, the binding signal was -0.00624 E-score in [1]; -0.0571 E-score in test [2]; -0.0447 E-score in test [3]; 0.0328 E-score in [4]; 0.0146 E-score in test [6]; -0.0814 E-score in test [7]. The binding signal was -0.0323 E-score in test [8]; 0.0726 E-score in test [9]; -0.0285 E-score in [10]; -0.115 E-score in test [11]; -0.0694 E-score in test [12]; -0.0449 E-score in [13]. For the same sequence, in test [14], the binding signal came out at 0.492 E-score.

AGTCGTGC: the binding signal was -0.0546 E-score in test [1]; -0.0574 E-score in [2]; 0.412 E-score in test [3]; 0.264 E-score in test [5]; -0.0329 E-score in test [6]; 0.041 E-score in test [7]. Besides, the binding signal in [8] is -0.0169 E-score; in test [9], -0.12 E-score; in [10], -0.117 E-score; in test [11], 0.324 E-score; in [12], 0.273 E-score; in [13], -0.0674 E-score. The sequence also registered a binding signal in [14] of 0.294 E-score.

GGCTGACC: the binding signal in test [1] was -0.0377 E-score; in [2] it was -0.164 E-score; in test [3], 0.039 E-score; in test [4], -0.159 E-score; in test [5], -0.174 E-score; in [6], -0.151 E-score. In addition, the binding signal in [7] was -0.0919 E-score; in [8], -0.0996 E-score; in [9], -0.0387 E-score; in [10] it was -0.155 E-score; in test [11], -0.175 E-score; in [12], -0.037 E-score. The binding signal in test [13] was -0.135 E-score; in test [14], 0.431 E-score.

As to CGAGTCAA, the binding signal in test [1] was -0.124 E-score; in test [2] it was -0.13 E-score; in [3], -0.0158 E-score; in [4], -0.0555 E-score; in [5], 0.00285 E-score; in test [6], -0.129 E-score. Also, the binding signal in test [7] was -0.17 E-score; in [8], -0.0533 E-score; in test [9] it was -0.00235 E-score; in test [10], -0.0903 E-score; in [11] it was -0.0396 E-score; in test [12], -0.0345 E-score. Besides, the binding signal was -0.0686 E-score in [13] and 0.477 E-score in test [14].

For the sequence GAAGACCA, the binding signal is -0.00746 E-score in [1]; 0.0358 E-score in [2]; 0.0169 E-score in [4]; -0.032 E-score in test [5]; -0.0808 E-score in test [6]; -0.0803 E-score in test [7]. The binding signal in test [8] was 0.0268 E-score; in test [9] it was -0.054 E-score; in test [10], -0.0759 E-score; in test [11] it was -0.035 E-score; in [12], 0.00769 E-score; in test [13] it was -0.0942 E-score. The same sequence registered a binding signal in test [14] of 0.442 E-score.

In the case of TCTGGTCA, the binding signal is -0.198 E-score in test [1]; -0.0982 E-score in test [2]; -0.159 E-score in test [3]; -0.125 E-score in test [4]; -0.0175 E-score in [5]; -0.039 E-score in test [6]. Also, the binding signal in [7] was 0.0115 E-score; in test [8], -0.1 E-score; in test [9] it was -0.0395 E-score; in [10], -0.0361 E-score; in test [11], 0.059 E-score; in test [12], -0.0283 E-score. The binding signal was -0.0449 E-score in test [13] and 0.455 E-score in test [14].

For ATGAGTCA, the binding signal in test [1] is -0.211 E-score; in test [2], 0.0338 E-score; in test [3], -0.0568 E-score; in test [4] it was -0.0615 E-score; in test [5], -0.0441 E-score; in test [6], -0.0141 E-score. The binding signal in test [7] is -0.134 E-score; in test [8] it was -0.0594 E-score; in [9], -0.0704 E-score; in [10], -0.0636 E-score; in [11], -0.00916 E-score; in test [12] it was 0.0214 E-score. The figures for the binding signal in test [13] and in test [14] were -0.0036 E-score and 0.427 E-score, respectively.

In the case of GACCGGTC, the binding signal in test [1] was -0.228 E-score; in test [2], -0.133 E-score; in test [3], -0.117 E-score; in test [4], -0.237 E-score; in test [5], -0.282 E-score; in test [6], -0.313 E-score. Besides, the binding signal was -0.0574 E-score in [7]; -0.282 E-score in test [8]; -0.115 E-score in [9]; -0.15 E-score in test [10]; -0.208 E-score in [11]; -0.0871 E-score in test [12]. The binding signal in test [13] is -0.1 E-score; in [14], 0.445 E-score.

Take AGTCAACC: the binding signal in [1] is -0.0666 E-score; in test [2], 0.0241 E-score; in test [3], -0.0126 E-score; in [4], -0.0642 E-score; in test [5], -0.000875 E-score; in [6] it was -0.0794 E-score. The binding signal in test [7] was -0.0861 E-score; in test [8] it was -0.0249 E-score; in test [9], -0.00188 E-score; in [10], -0.0403 E-score; in test [11], -0.0612 E-score; in test [12], -0.126 E-score. For the same sequence, the results for the binding signal in test [13] and in test [14] were -0.0667 E-score and 0.486 E-score, respectively.

For GAGGTCAA, the binding signal in [1] is -0.0364 E-score; in test [2], -7e-05 E-score; in test [3], -0.0839 E-score; in [4], 0.0235 E-score; in test [5] it was -0.00449 E-score; in test [6] it was 0.00153 E-score. Further, the binding signal in test [7] was -0.0918 E-score; in test [8], -0.0437 E-score; in [9], 0.0439 E-score; in test [10] it was -0.0172 E-score; in test [11] it was -0.0606 E-score; in test [12], 0.0285 E-score. The values for the binding signal in test [13] and in test [14] were -0.0447 E-score and 0.485 E-score, respectively.
